110 sequences from paper PMC4242493 can be followed below.

The list shows a part of the results. The list includes weakly bound sequences.

The target in this assay is MaxL homodimer (UniProt P61244). Description: universal protein-binding microarray (PBM). The settings on record: PBS-based mixture, 10 nM His-tagged protein dimer, 2% milk, 200 ng/uL BSA, 50 ng/uL salmon testes DNA, 0.02% TX-100; detection with Alexa 488 anti-His …; high values mean tight binding; most listed sequences are background and not binding sites; double strand, one strand shown.
UniProt P61244, sequence (P61244 whole entry): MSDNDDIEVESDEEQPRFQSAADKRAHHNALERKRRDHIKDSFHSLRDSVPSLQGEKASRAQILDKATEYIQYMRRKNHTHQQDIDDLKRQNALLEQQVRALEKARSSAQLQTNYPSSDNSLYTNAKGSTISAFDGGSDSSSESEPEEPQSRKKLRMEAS
On to AAAGCTTA, for which the binding signal (normalized occupancy) was 0.0697. With ATGGACCG the figure was 0.0753; with GTTACACA, 0.0807; with AGGATCTA, 0.0756. Next, AAATTTAC: 0.0697. TAGTAAAA: the binding signal (normalized occupancy) worked out at 0.0779.

As to GGCAACAC, the binding signal (normalized occupancy) came to 0.0769. With CGCCAAAG the figure was 0.0704. Next, ATCGAGGA: 0.0734; GCACCCGC: 0.0769. CCACATGG: the binding signal (normalized occupancy) was determined as 0.227.

As for AACGTATT, the binding signal (normalized occupancy) came to 0.0745. With ACCGGCAC the figure was 0.079; with ATAGCTTA, 0.0699; with ACGCCGGA, 0.0718. Next, AAAATTTG: 0.0688; CCAGACCC: 0.0772.

As to CAATGATC, the binding signal (normalized occupancy) is 0.0797. Next, CTCACTCC: 0.0728; AACCTGCT: 0.0743. With ACCGTGGG the figure was 0.0732; with TTAATAAA, 0.0743; with GATCCTCA, 0.0779. With TAGCCCGA the figure was 0.066; with AATTAATG, 0.0696; with TATTGTCA, 0.0833. Turning to CAACATAC, the binding signal (normalized occupancy) is 0.079. CGACCGCC: the binding signal (normalized occupancy) is 0.0733. With CAATATAA the figure was 0.0773; with CTACTTGC, 0.0752; with AGTGGGCC, 0.0729. Next, CCCACCAA: 0.0738; CCTCACGC: 0.0905. With ATTCTTGG the figure was 0.074; with GCAGTGGC, 0.0659; with AAAATGAG, 0.0781. Take AACATCTG: the binding signal (normalized occupancy) came out at 0.0767. With CCATTGCA the figure was 0.0774; with AAAGCTAT, 0.0735.

For CTCAGGTA, the binding signal (normalized occupancy) came to 0.0773. With AATCAAAG the figure was 0.074. Next, AGTGCAAA: 0.0754. With ACTTTCAT the figure was 0.0735; with TATTTACA, 0.0806; with AATAGACA, 0.0735.

ATCACCGC: the binding signal (normalized occupancy) amounted to 0.0749. With ACTTAGCG the figure was 0.0738; with CAGATTTC, 0.0684. As to GCGCAGTA, the binding signal (normalized occupancy) came out at 0.071. Next, GGTCGAGA: 0.0728.

Consider CCTTCGCA, for which the binding signal (normalized occupancy) came to 0.0743. With GCCCCCTA the figure was 0.0701. With CAGGCCTG the figure was 0.0765. With CTGTGATC the figure was 0.0728; with ATTCCCTG, 0.0741; with ATAAAGGG, 0.0707. As for ATGTGGTG, the binding signal (normalized occupancy) worked out at 0.0894.

For the sequence CGATGCGC, the binding signal (normalized occupancy) came to 0.0736.

As for CGTGTTGA, the binding signal (normalized occupancy) stood at 0.0871. Next, GCACTTTA: 0.0763; GGTTCCGA: 0.0719. TCCGCACA: the binding signal (normalized occupancy) amounted to 0.0826.

As to CGGAATGA, the binding signal (normalized occupancy) amounted to 0.0748. With CGAACGCA the figure was 0.0719. For ACGGAGGG, the binding signal (normalized occupancy) was 0.0731. With ATCAAGGG, the binding signal (normalized occupancy) was found to be 0.0755. Next, GGTATCGA: 0.0769. On to ACAGCGAG, for which the binding signal (normalized occupancy) worked out at 0.0728. Next, CGTGGTTC: 0.0858; AGTGAGAG: 0.081; CCGCGTAA: 0.0729.

On to GCCAATAC, for which the binding signal (normalized occupancy) was 0.0791.

For the sequence GAACTCCC, the binding signal (normalized occupancy) was determined as 0.0709. With CGTCCTAC the figure was 0.0745.

Turning to AAACTAGC, the binding signal (normalized occupancy) is 0.0695. Next, CCTGCTAC: 0.0758. With CCAGCATA the figure was 0.0816; with AAGACGTC, 0.0742; with ATCAAAAA, 0.0723.

As for TGGGGAAA, the binding signal (normalized occupancy) worked out at 0.0728. Next, ACGGTAAT: 0.0786; ATCGTAGA: 0.0797. Regarding GACTAAAC, the binding signal (normalized occupancy) worked out at 0.0764. Next, AAACATTC: 0.0753. Next, CATGGTAC: 0.0998; CATCGCCA: 0.0788; CTCACGAG: 0.0842. With GCTTGAGA, the binding signal (normalized occupancy) turned out to be 0.0708. In the case of GCTCACGA, the binding signal (normalized occupancy) was 0.075.

Regarding CAGATGGC, the binding signal (normalized occupancy) came out at 0.0848. With ACAGACAT the figure was 0.0815; with ACGCCGCG, 0.0773.

With CTGTCGCC, the binding signal (normalized occupancy) was found to be 0.0762. Next, AGTAAGGA: 0.0746; CAAGTAAC: 0.0735. Next, CGCTCAAG: 0.0703; AGAGGCAT: 0.0763; GCGTGCAA: 0.0963.

In the case of AAAGGGAT, the binding signal (normalized occupancy) is 0.0748. In the case of CAGGACCA, the binding signal (normalized occupancy) was determined as 0.0726.

For the sequence ATAATCAT, the binding signal (normalized occupancy) worked out at 0.0871. For GATCCAAC, the binding signal (normalized occupancy) amounted to 0.0725. Next, GGGCTGGA: 0.0746; ACTTCGGC: 0.0678; CGAGCCGA: 0.0667. As for CTCGGGGA, the binding signal (normalized occupancy) was determined as 0.0713.

As to ACGTAGAA, the binding signal (normalized occupancy) stood at 0.0765. With CGCGTTCC the figure was 0.075; with ATACGATG, 0.0797.

Turning to GTCATGTA, the binding signal (normalized occupancy) is 0.089.
